Test results as given in ChEMBL document CHEMBL1201862, “PubChem BioAssay data set” (2004).
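Compound exposure: 48 hours, 5 concentrations, 96-well plates. At the GI50, growth is halved.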 The source made the active and inactive calls. No stated cut-off is given here; in the data, active = GI50 up to about 1.1 µM and inactive = higher.

Each compound was assayed on NCI-H322M (assay: NCI tumour cell line growth inhibition, 48 h).

SMILES	GI50
CN1CCC(O)(OC(=O)C(c2ccccc2)C2(O)CCCC2)CC1 (stereo not given)	inactive: > 100 µM
Cc1ccc(NC(=O)/C(Cc2cc(=O)oc3cc(O)ccc23)=N\NC(C)(C)C)cc1C	inactive: > 100 µM
CN(C)CC1COC2Cc3ccccc3C1O2 (stereo not given)	inactive: > 100 µM
c1ccc2c(c1)N=C(c1cccc3ccccc13)CC(c1ccc3c(c1)OCO3)S2 (stereo not given)	inactive: > 100 µM
CCN1CCc2sc3nc(S)n(C)c(=O)c3c2C1	inactive: > 100 µM
CCN(CC)c1ccc(/C=c2\nc(-c3ccccc3)n3c2nc2ccccc23)cc1	inactive: 1.73 µM
CC1(C)OCC(C2OC(C)(C)OC2[C@H]2O[C@@]3(O)[C@H]4[C@H](C=CC[C@@H]42)[C@@H](OCc2ccccc2)[C@H](OCc2ccccc2)[C@H]3OCc2ccccc2)O1 (stereo not given in full)	inactive: 78.7 µM
CC(=O)Nc1sccc1S(=O)(=O)c1ccc(Cl)cc1	inactive: > 100 µM
COC(=O)C1C(/C=C/c2ccoc2)ON2CCC[C@@H]12 (stereo not given in full)	inactive: > 100 µM
O=C1CC2(C[C@@H]3CCCCCCCCC[C@@H](C3)C2)N1 (stereo not given in full)	inactive: 17.4 µM
CC1=NN(c2nc(N)nc(CS(C)(=O)=O)n2)C(C)(C)C1	inactive: > 100 µM
C[C@@H]1C[C@H]2OC(=O)[C@@]3(C)CCC[C@@](C)([C@@H]23)[C@@]1(O)CCc1ccoc1	inactive: > 100 µM
CC1=C(Cl)C=CP(=O)(Oc2ccccc2)C1 (stereo not given)	inactive: > 100 µM
N#CC1CCCCOCCOCCOCCOCCOCCCCCC1=O (stereo not given)	inactive: > 100 µM
COc1ccc(/C=C/C(=O)c2cc(C(=O)O)c(OC)cc2OC)cc1OC	inactive: > 100 µM
O=C1CC(c2ccc([N+](=O)[O-])cc2)C2(C(=O)NC(=S)NC2=O)C(c2ccc([N+](=O)[O-])cc2)C1 (stereo not given)	inactive: 13.4 µM
CCOC(=O)c1cnc2[nH]c(=O)c3ccccc3n2c1=O	inactive: > 100 µM
CCOC(=O)Cc1csc2[n+]1C(=O)/C(=C\c1cccc(Cl)c1Cl)S2	inactive: 24.9 µM
CCOC(=O)C1C/C(C)=C(/C)SCCCS1 (stereo not given)	inactive: > 100 µM
Cc1ccc(/N=N/C(=N/NC(=O)c2cc(Cl)ccc2C(=O)c2ccccc2)c2ccc(N(CCC#N)CCC#N)cc2C)cc1	inactive: 16.8 µM
COc1ccc(CCN(C)C(=O)CC(C#N)(c2ccccc2)c2ccc(OC)c(OC)c2)cc1OC (stereo not given)	inactive: > 100 µM
O=C1CSC(c2ccccc2)N1c1ccc(-n2c(-c3ccccc3)nc3ccccc3c2=O)cc1 (stereo not given)	inactive: > 88.1 µM
CC(C)C(NCc1c2ccccc2nc2ccccc12)C(=O)O (stereo not given)	inactive: > 100 µM

SMILES	GI50
COc1ccc(NC(=S)N/N=C(\c2ccccc2)c2ccccn2)cc1	active: < 0.01 µM
Cc1cn(CC2(CO)CCC2)c(=O)[nH]c1=O	inactive: > 100 µM
COC(=O)[C@H]1CO[C@@H](C(C)(C)C)N1C(=O)N1C=CC(=O)C[C@@H]1C	inactive: > 100 µM
O=C(O)C(NCc1ccccc1)C(NCc1ccccc1)C(=O)O (stereo not given)	inactive: > 100 µM
O=C(Cn1c2ccc(Br)cc2c2nc3ccccc3nc21)Nc1ccccc1	inactive: 54.2 µM
CCN(CC)C(=O)c1c(Cl)cc(N(CC)CC)oc1=O	inactive: > 100 µM
CCOc1cccc(/C=N\c2ccccc2SSc2ccccc2/N=C\c2cccc(OCC)c2O)c1O	inactive: 8.32 µM
COC(=O)Cc1nc2ccccc2o1	inactive: > 100 µM
CCCCCC(=O)N[C@@H](c1ccco1)[C@@H](O)C(=O)O[C@H]1C[C@@]2(O)[C@@H](OC(=O)c3ccccc3)[C@@H]3[C@]4(OC(C)=O)CO[C@@H]4C[C@H](O)[C@@]3(C)C(=O)[C@H](OC(C)=O)C(=C1C)C2(C)C	inactive: 16.9 µM
O=c1n(-c2ccc(Cl)c(Cl)c2)c(=O)n(-c2ccc(Cl)c(Cl)c2)c(=O)n1-c1ccc(Cl)c(Cl)c1	inactive: 2.17 µM
O=C(O)C12C=CC(C1)c1ccccc12 (stereo not given)	inactive: > 100 µM
COC1=C(Br)C(O)C2(C=C1Br)CC(C(=O)NCCCCNC(=O)C1=NOC3(C=C(Br)C(OC)=C(Br)C3O)C1)=NO2 (stereo not given)	inactive: 30.1 µM
O=C1CCNC(=O)NC1	inactive: > 100 µM
Cc1ccc(S(=O)(=O)N2CCC2c2ccccc2)cc1 (stereo not given)	inactive: > 100 µM
CC1C(=O)O[B-]2(c3ccccc3)Oc3ccccc3C=[N+]12 (stereo not given)	inactive: > 100 µM
CC1CCC2C(C(=O)O[C@H]3C4C=CO[C@@H](OC5OC(CO)C(O)C(O)C5O)C4[C@@]4(CO)O[C@@H]34)=CO[C@@H](OC3OC(CO)C(O)C(O)C3O)C12 (stereo not given in full)	inactive: > 10 µM
CCSCCCCC(c1ccc(O)cc1)C(C)(CC)c1ccc(O)cc1 (stereo not given)	inactive: > 100 µM
CC1CC[C@]2(C(=O)O)CCC3(C)C(=CCC4[C@@]5(C)CC[C@H](OS(=O)(=O)c6ccccc6)C(C)(C)C5CC[C@]43C)[C@@H]2[C@H]1C (stereo not given in full)	inactive: 84.7 µM
COc1cc2c(c(OC)c1OC)-c1ccc(SC)c(=O)cc1[C@@H](NCc1ccc(F)cc1)CC2	active: < 0.0075 µM
CCc1ccc2nc(-c3ccc(O)cc3)sc2c1	inactive: 17.5 µM
O=C(NNC(=O)c1cc2ccccc2[nH]1)c1cc2ccccc2[nH]1	inactive: > 100 µM
COc1ccc(/C=C/C(=O)/C=C/c2ccc(OC)cc2)cc1	inactive: > 100 µM
